# Assay results taken from the supplement of paper PMC8728848.
# Some of the results follow.
# B1: Gal 9 (Homo sapiens), O00182 (protein)
# chain: MAFSGSQAPYLSPAVPFSGTIQGGLQDGLQITVNGTVLSSSGTRFAVNFQTGFSGNDIAFHFNPRFEDGGYVVCNTRQNGSWGPEERKTHMPFQKGMPFDLCFLVQSSDFKVMVNGILFVQYFHRVPFHRVDTISVNGSVQLSYISFQNPRTVPVQPAFSTVPFSQPVCFPPRPRGRRQKPPGVWPANPAPITQTVIHTVQSAPGQMFSTPAIPPMMYPHPAYPMPFITTILGGLYPSKSILLSGTVLPSAQRFHINLCSGNHIAFHLNPRFDENAVVRNTQIDNSWGSEERSLPRKMPFVRGQSFSVWILCEAHCLKVAVDGQHLFEYYHRLRNLPTINRLEVGGDIQLTHVQT
# How the values were obtained:
# Assay in all cases: glycan array binding signal (z-score within array); higher = stronger binding
# Details in all cases: glycan notation: IUPAC condensed, linker removed
# [1] = molecular target: Neu5Ac(a2-6)Gal(b1-4)Glc
# How it was run: (§1)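 Negative Z-scores can be read as non-binding. The Z-score is calculated within each array and then averaged across arrays of one protein sequence at different concentrations or buffers and across linkers. Arrays, 3228 in all, were curated from the Consortium for Functional Glycomics database and kept only where the protein sequence was available.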
# [2] = molecular target: Neu5Ac(a2-6)Gal(b1-4)GlcNAc
# How it was run: as §1
# [3] = molecular target: Neu5Ac(a2-6)Gal(b1-4)GlcNAc(b1-2)Man
# How it was run: as §1
# [4] = molecular target: Neu5Ac(a2-6)Gal(b1-4)GlcNAc(b1-2)Man(a1-3)Man(b1-4)GlcNAc(b1-4)GlcNAc
# How it was run: as §1
# [5] = molecular target: Neu5Ac(a2-6)Gal(b1-4)GlcNAc(b1-2)Man(a1-3)[Gal(b1-4)GlcNAc(b1-2)Man(a1-6)]Man(b1-4)GlcNAc(b1-4)GlcNAc
# How it was run: as §1
# [6] = molecular target: Neu5Ac(a2-6)Gal(b1-4)GlcNAc(b1-2)Man(a1-3)[GlcNAc(b1-2)Man(a1-6)]Man(b1-4)GlcNAc(b1-4)GlcNAc
# How it was run: as §1
# [7] = molecular target: Neu5Ac(a2-6)Gal(b1-4)GlcNAc(b1-2)Man(a1-3)[GlcNAc(b1-2)Man(b1-4)GlcNAc(b1-2)Man(a1-6)]Man(b1-4)GlcNAc(b1-4)GlcNAc
# How it was run: as §1
# [8] = molecular target: Neu5Ac(a2-6)Gal(b1-4)GlcNAc(b1-2)Man(a1-3)[GlcNAc(b1-4)][Neu5Ac(a2-6)Gal(b1-4)GlcNAc(b1-2)Man(a1-6)]Man(b1-4)GlcNAc(b1-4)GlcNAc
# How it was run: as §1
# [9] = molecular target: Neu5Ac(a2-6)Gal(b1-4)GlcNAc(b1-2)Man(a1-3)[Man(a1-6)]Man(b1-4)GlcNAc(b1-4)GlcNAc
# How it was run: as §1
# [10] = molecular target: Neu5Ac(a2-6)Gal(b1-4)GlcNAc(b1-2)Man(a1-3)[Neu5Ac(a2-3)Gal(b1-4)GlcNAc(b1-2)Man(a1-6)]Man(b1-4)GlcNAc(b1-4)GlcNAc
# How it was run: as §1
# [11] = molecular target: Neu5Ac(a2-6)Gal(b1-4)GlcNAc(b1-2)Man(a1-3)[Neu5Ac(a2-6)Gal(b1-4)GlcNAc(b1-2)Man(a1-6)]Man(b1-4)GlcNAc(b1-4)GlcNAc
# How it was run: as §1
# [12] = molecular target: Neu5Ac(a2-6)Gal(b1-4)GlcNAc(b1-2)Man(a1-3)[Neu5Ac(a2-6)Gal(b1-4)GlcNAc(b1-2)Man(a1-6)]Man(b1-4)GlcNAc(b1-4)[Fuc(a1-6)]GlcNAc
# How it was run: as §1
# [13] = molecular target: Neu5Ac(a2-6)Gal(b1-4)GlcNAc(b1-2)Man(a1-6)Man(b1-4)GlcNAc(b1-4)GlcNAc
# How it was run: as §1
# [14] = molecular target: Neu5Ac(a2-6)Gal(b1-4)GlcNAc(b1-2)Man(a1-6)[Gal(b1-4)GlcNAc(b1-2)Man(a1-3)]Man(b1-4)GlcNAc(b1-4)GlcNAc
# How it was run: as §1
# [15] = molecular target: Neu5Ac(a2-6)Gal(b1-4)GlcNAc(b1-2)Man(a1-6)[GlcNAc(b1-2)Man(a1-3)]Man(b1-4)GlcNAc(b1-4)GlcNAc
# How it was run: as §1
# [16] = molecular target: Neu5Ac(a2-6)Gal(b1-4)GlcNAc(b1-2)Man(a1-6)[Man(a1-3)]Man(b1-4)GlcNAc(b1-4)GlcNAc
# How it was run: as §1
# [17] = molecular target: Neu5Ac(a2-6)Gal(b1-4)GlcNAc(b1-2)[Neu5Ac(a2-6)Gal(b1-4)GlcNAc(b1-4)]Man(a1-3)[GlcNAc(b1-4)][Neu5Ac(a2-6)Gal(b1-4)GlcNAc(b1-2)[Neu5Ac(a2-6)Gal(b1-4)GlcNAc(b1-6)]Man(a1-6)]Man(b1-4)GlcNAc(b1-4)GlcNAc
# How it was run: as §1
# [18] = molecular target: Neu5Ac(a2-6)Gal(b1-4)GlcNAc(b1-2)[Neu5Ac(a2-6)Gal(b1-4)GlcNAc(b1-4)]Man(a1-3)[GlcNAc(b1-4)][Neu5Ac(a2-6)Gal(b1-4)GlcNAc(b1-4)Man(a1-6)]Man(b1-4)GlcNAc(b1-4)GlcNAc
# How it was run: as §1
# [19] = molecular target: Neu5Ac(a2-6)Gal(b1-4)GlcNAc(b1-2)[Neu5Ac(a2-6)Gal(b1-4)GlcNAc(b1-6)]Man(a1-6)[Neu5Ac(a2-6)Gal(b1-4)GlcNAc(b1-2)Man(a1-3)][GlcNAc(b1-4)]Man(b1-4)GlcNAc(b1-4)GlcNAc
# How it was run: as §1
# [20] = molecular target: Neu5Ac(a2-6)Gal(b1-4)GlcNAc(b1-3)Gal(b1-3)GlcNAc
# How it was run: as §1
# [21] = molecular target: Neu5Ac(a2-6)Gal(b1-4)GlcNAc(b1-3)Gal(b1-4)GlcNAc
# How it was run: as §1
# [22] = molecular target: Neu5Ac(a2-6)Gal(b1-4)GlcNAc(b1-3)Gal(b1-4)GlcNAc(b1-2)Man(a1-3)[Neu5Ac(a2-6)Gal(b1-4)GlcNAc(b1-3)Gal(b1-4)GlcNAc(b1-2)Man(a1-6)]GalNAc
# How it was run: as §1
# [23] = molecular target: Neu5Ac(a2-6)Gal(b1-4)GlcNAc(b1-3)Gal(b1-4)GlcNAc(b1-3)Gal(b1-4)GlcNAc
# How it was run: as §1
# [24] = molecular target: Neu5Ac(a2-6)Gal(b1-4)GlcNAc(b1-3)Gal(b1-4)GlcNAc(b1-3)Gal(b1-4)GlcNAc(b1-2)Man(a1-3)[Neu5Ac(a2-6)Gal(b1-4)GlcNAc(b1-3)Gal(b1-4)GlcNAc(b1-3)Gal(b1-4)GlcNAc(b1-2)Man(a1-6)]GalNAc
# How it was run: as §1
# [25] = molecular target: Neu5Ac(a2-6)Gal(b1-4)GlcNAc(b1-3)Gal(b1-4)GlcNAc(b1-3)GalNAc
# How it was run: as §1
# [26] = molecular target: Neu5Ac(a2-6)Gal(b1-4)GlcNAc(b1-3)Gal(b1-4)GlcNAc(b1-3)[Neu5Ac(a2-6)Gal(b1-4)GlcNAc(b1-3)Gal(b1-4)GlcNAc(b1-6)]GalNAc
# How it was run: as §1
# [27] = molecular target: Neu5Ac(a2-6)Gal(b1-4)GlcNAc(b1-3)Gal(b1-4)GlcNAc(b1-6)[Gal(b1-3)]GalNAc
# How it was run: as §1
# [28] = molecular target: Neu5Ac(a2-6)Gal(b1-4)GlcNAc(b1-3)Gal(b1-4)[Fuc(a1-3)]GlcNAc(b1-3)Gal(b1-4)[Fuc(a1-3)]GlcNAc
# How it was run: as §1
# [29] = molecular target: Neu5Ac(a2-6)Gal(b1-4)GlcNAc(b1-3)GalNAc
# How it was run: as §1
# [30] = molecular target: Neu5Ac(a2-6)Gal(b1-4)GlcNAc(b1-3)[Neu5Ac(a2-6)Gal(b1-4)GlcNAc(b1-6)]GalNAc
# How it was run: as §1
# [31] = molecular target: Neu5Ac(a2-6)Gal(b1-4)GlcNAc(b1-6)GalNAc
# How it was run: as §1
# [32] = molecular target: Neu5Ac(a2-6)Gal(b1-4)GlcNAc(b1-6)[Gal(b1-3)GlcNAc(b1-3)]Gal(b1-4)Glc
# How it was run: as §1
# [33] = molecular target: Neu5Ac(a2-6)Gal(b1-4)GlcNAc(b1-6)[Gal(b1-3)]GalNAc
# How it was run: as §1
# [34] = molecular target: Neu5Ac(a2-6)Gal(b1-4)GlcNAc6S
# How it was run: as §1
# [35] = molecular target: Neu5Ac(a2-6)GalNAc
# How it was run: as §1
binder,measurement,setting,value
B1,glycan array binding signal (z-score),[1],-0.318
same,glycan array binding signal (z-score),[2],-0.319
same,glycan array binding signal (z-score),[3],-0.291
same,glycan array binding signal (z-score),[4],-0.314
same,glycan array binding signal (z-score),[5],0.042
same,glycan array binding signal (z-score),[6],-0.289
same,glycan array binding signal (z-score),[7],0.913
same,glycan array binding signal (z-score),[8],-0.306
same,glycan array binding signal (z-score),[9],-0.315
same,glycan array binding signal (z-score),[10],-0.259
same,glycan array binding signal (z-score),[11],-0.286
same,glycan array binding signal (z-score),[12],-0.278
same,glycan array binding signal (z-score),[13],-0.318
same,glycan array binding signal (z-score),[14],0.175
same,glycan array binding signal (z-score),[15],-0.323
same,glycan array binding signal (z-score),[16],-0.338
same,glycan array binding signal (z-score),[17],-0.287
same,glycan array binding signal (z-score),[18],-0.298
same,glycan array binding signal (z-score),[19],-0.293
same,glycan array binding signal (z-score),[20],0.704
same,glycan array binding signal (z-score),[21],0.148
same,glycan array binding signal (z-score),[22],5.41
same,glycan array binding signal (z-score),[23],0.358
same,glycan array binding signal (z-score),[24],0.794
same,glycan array binding signal (z-score),[25],0.8
same,glycan array binding signal (z-score),[26],0.144
same,glycan array binding signal (z-score),[27],0.213
same,glycan array binding signal (z-score),[28],-0.306
same,glycan array binding signal (z-score),[29],-0.319
same,glycan array binding signal (z-score),[30],-0.275
same,glycan array binding signal (z-score),[31],-0.262
same,glycan array binding signal (z-score),[32],-0.286
same,glycan array binding signal (z-score),[33],-0.255
same,glycan array binding signal (z-score),[34],-0.321
same,glycan array binding signal (z-score),[35],-0.322
